Laboratory results: patent publication US20040002425A1, “Triketone derivatives and herbicides” (Idemitsu Kosan Co., Ltd., priority 1998, published 2004)
The name of at least one read-out is uncertain.

How the values were obtained:
Echinochloa crug-galli [1] = experiment: Biological Test 1 (soaking in water/treatment on the 3rd day after transplantation): weed-killing effect on barnyard grass; format: in vivo, Echinochloa crus-galli; details: Treatment performed 3 days after transplantation
Scirups juncoides [2] = experiment: Biological Test 2 (soaking in water/treatment on the 10th day after transplantation): weed-killing effect on Scirups juncoides; format: in vivo, Scirpus juncoides; details: Treatment performed 10 days after transplantation
Echinochloa crug-galli [3] = experiment: Biological Test 2 (soaking in water/treatment on the 10th day after transplantation): weed-killing effect on barnyard grass; format: in vivo, Echinochloa crus-galli; details: Treatment performed 10 days after transplantation
Scirups juncoides [4] = experiment: Biological Test 1 (soaking in water/treatment on the 3rd day after transplantation): weed-killing effect on Scirups juncoides; format: in vivo, Scirpus juncoides; details: Treatment performed 3 days after transplantation

| SMILES | Weed-killing effect, Echinochloa crug-galli (Echinochloa crug-galli [1]; dose 100 g/ha) | Weed-killing effect, Echinochloa crug-galli (Echinochloa crug-galli [1]; dose 200 g/ha) | Weed-killing effect, Scirups juncoides (Scirups juncoides [2]; dose 100 g/ha) | Weed-killing effect, Scirups juncoides (Scirups juncoides [2]; dose 200 g/ha) | Weed-killing effect, Echinochloa crug-galli (Echinochloa crug-galli [3]; dose 100 g/ha) | Weed-killing effect, Echinochloa crug-galli (Echinochloa crug-galli [3]; dose 200 g/ha) | Weed-killing effect, Scirups juncoides (Scirups juncoides [4]; dose 100 g/ha) | Weed-killing effect, Scirups juncoides (Scirups juncoides [4]; dose 200 g/ha) |
| --- | --- | --- | --- | --- | --- | --- | --- | --- |
| CO/N=C1\CCS(=O)(=O)c2c(C)cc(C(=O)C3=C(Nc4ccc(C)cc4)CCCC3=O)c(C)c21 [B-58, 4-methoxyimino-5,8-dimethyl-6-[3-(4-methylphenyl)amino-1-oxocyclohexan-2-yl]carbonylthiochroman-1,1-1,1-dioxide] | 0 (less than 5% (almost no effect)) | 1 (5% or more and less than 20%) | 0 (less than 5% (almost no effect)) | 1 (5% or more and less than 20%) | 0 (less than 5% (almost no effect)) | 1 (5% or more and less than 20%) | 0 (less than 5% (almost no effect)) | 1 (5% or more and less than 20%) |
| CO/N=C1\CCS(=O)(=O)c2c(C)cc(C(=O)C3=C(Sc4ccc(C)cc4)CCCC3=O)c(C)c21 [B-59, 4-methoxyimino-5,8-dimethyl-6-[3-(4-methylphenyl)thio-1-oxocyclohexan-2-yl]carbonylthiochroman-1,1-1,1-dioxide] | 5 (90% or more (almost completely withered)) | 5 (90% or more (almost completely withered)) | 3 (40% or more and less than 70%) | 5 (90% or more (almost completely withered)) | 4 (70% or more and less than 90%) | 5 (90% or more (almost completely withered)) | 5 (90% or more (almost completely withered)) | 5 (90% or more (almost completely withered)) |
| CO/N=C1\CCS(=O)(=O)c2c(C)cc(C(=O)C3=C(S(=O)(=O)c4ccc(C)cc4)CCCC3=O)c(C)c21 [B-60, 4-methoxyimino-5,8-dimethyl-6-[3-(4-methylphenyl)sulfonyl-1-oxocyclohexan-2-yl]carbonylthiochroman-1,1-1,1-dioxide] | 3 (40% or more and less than 70%) | 4 (70% or more and less than 90%) | 2 (20% or more and less than 40%) | 4 (70% or more and less than 90%) | 3 (40% or more and less than 70%) | 4 (70% or more and less than 90%) | 2 (20% or more and less than 40%) | 4 (70% or more and less than 90%) |
| CCCSC1=C(C(=O)c2cc(C)c3c(c2C)/C(=N/OC)CCS3(=O)=O)C(=O)CCC1 [B-61, 4-methoxyimino-5,8-dimethyl-6-[3-(3-propyl)thio-1-oxocyclohexan-2-yl)carbonylthiochroman-1,1-1,1-dioxide] | 1 (5% or more and less than 20%) | 5 (90% or more (almost completely withered)) | 1 (5% or more and less than 20%) | 3 (40% or more and less than 70%) | 1 (5% or more and less than 20%) | 5 (90% or more (almost completely withered)) | 1 (5% or more and less than 20%) | 4 (70% or more and less than 90%) |
| CCCS(=O)(=O)C1=C(C(=O)c2cc(C)c3c(c2C)/C(=N/OC)CCS3(=O)=O)C(=O)CCC1 [B-62, 4-methoxyimino-5,8-dimethyl-6-[3-(3-propyl)sulfonyl-1-oxocyclohexan-2-yl]carbonylthiochroman-1,1-1,1-dioxide] | 2 (20% or more and less than 40%) | 5 (90% or more (almost completely withered)) | 1 (5% or more and less than 20%) | 4 (70% or more and less than 90%) | 2 (20% or more and less than 40%) | 5 (90% or more (almost completely withered)) | 1 (5% or more and less than 20%) | 5 (90% or more (almost completely withered)) |
| Cc1c(C(=O)C2=C(Cl)CCCC2=O)ccc2c1C(=O)C(C)(C)CS2(=O)=O [B-63] | 2 (20% or more and less than 40%) | 5 (90% or more (almost completely withered)) | 4 (70% or more and less than 90%) | 5 (90% or more (almost completely withered)) | 2 (20% or more and less than 40%) | 5 (90% or more (almost completely withered)) | 5 (90% or more (almost completely withered)) | 5 (90% or more (almost completely withered)) |
| Cc1c(C(=O)C2=C(Sc3ccc(Cl)cc3)CCCC2=O)ccc2c1C(=O)C(C)(C)CS2(=O)=O [B-64, 3,3,5-trimethyl-6-[3-(4-chloro)thio-1-oxocyclohexan-2-yl]carbonylthiochroman-4-one-1,1-dioxide] | 5 (90% or more (almost completely withered)) | 5 (90% or more (almost completely withered)) | 3 (40% or more and less than 70%) | 5 (90% or more (almost completely withered)) | 3 (40% or more and less than 70%) | 5 (90% or more (almost completely withered)) | 3 (40% or more and less than 70%) | 5 (90% or more (almost completely withered)) |
| Cc1c(C(=O)C2=C(S(=O)(=O)c3ccc(Cl)cc3)CCCC2=O)ccc2c1C(=O)C(C)(C)CS2(=O)=O [B-65] | 5 (90% or more (almost completely withered)) | 5 (90% or more (almost completely withered)) | 4 (70% or more and less than 90%) | 5 (90% or more (almost completely withered)) | 3 (40% or more and less than 70%) | 5 (90% or more (almost completely withered)) | 5 (90% or more (almost completely withered)) | 5 (90% or more (almost completely withered)) |
| Cc1cc(C(=O)C2=C(Cl)CCCC2=O)c(C)c2c1S(=O)(=O)CCC2OC(C)C (stereo not drawn) [B-66] | 5 (90% or more (almost completely withered)) | 5 (90% or more (almost completely withered)) | 3 (40% or more and less than 70%) | 5 (90% or more (almost completely withered)) | 5 (90% or more (almost completely withered)) | 5 (90% or more (almost completely withered)) | 5 (90% or more (almost completely withered)) | 5 (90% or more (almost completely withered)) |
